The campaign covered roughly 310,000 compounds. About 2,200 (0.71%) showed an effect of 50% or more. Effects have a minus sign here. The list shows a part of the results.
Molecular target: human ether-à-go-go-related gene (hERG) potassium channel (human, UniProt Q12809)
Assay: primary screen, population patch clamp on CHO cells stably expressing hERG

human ether-à-go-go-related gene (hERG) potassium channel, sequence (Q12809 whole entry, looked up): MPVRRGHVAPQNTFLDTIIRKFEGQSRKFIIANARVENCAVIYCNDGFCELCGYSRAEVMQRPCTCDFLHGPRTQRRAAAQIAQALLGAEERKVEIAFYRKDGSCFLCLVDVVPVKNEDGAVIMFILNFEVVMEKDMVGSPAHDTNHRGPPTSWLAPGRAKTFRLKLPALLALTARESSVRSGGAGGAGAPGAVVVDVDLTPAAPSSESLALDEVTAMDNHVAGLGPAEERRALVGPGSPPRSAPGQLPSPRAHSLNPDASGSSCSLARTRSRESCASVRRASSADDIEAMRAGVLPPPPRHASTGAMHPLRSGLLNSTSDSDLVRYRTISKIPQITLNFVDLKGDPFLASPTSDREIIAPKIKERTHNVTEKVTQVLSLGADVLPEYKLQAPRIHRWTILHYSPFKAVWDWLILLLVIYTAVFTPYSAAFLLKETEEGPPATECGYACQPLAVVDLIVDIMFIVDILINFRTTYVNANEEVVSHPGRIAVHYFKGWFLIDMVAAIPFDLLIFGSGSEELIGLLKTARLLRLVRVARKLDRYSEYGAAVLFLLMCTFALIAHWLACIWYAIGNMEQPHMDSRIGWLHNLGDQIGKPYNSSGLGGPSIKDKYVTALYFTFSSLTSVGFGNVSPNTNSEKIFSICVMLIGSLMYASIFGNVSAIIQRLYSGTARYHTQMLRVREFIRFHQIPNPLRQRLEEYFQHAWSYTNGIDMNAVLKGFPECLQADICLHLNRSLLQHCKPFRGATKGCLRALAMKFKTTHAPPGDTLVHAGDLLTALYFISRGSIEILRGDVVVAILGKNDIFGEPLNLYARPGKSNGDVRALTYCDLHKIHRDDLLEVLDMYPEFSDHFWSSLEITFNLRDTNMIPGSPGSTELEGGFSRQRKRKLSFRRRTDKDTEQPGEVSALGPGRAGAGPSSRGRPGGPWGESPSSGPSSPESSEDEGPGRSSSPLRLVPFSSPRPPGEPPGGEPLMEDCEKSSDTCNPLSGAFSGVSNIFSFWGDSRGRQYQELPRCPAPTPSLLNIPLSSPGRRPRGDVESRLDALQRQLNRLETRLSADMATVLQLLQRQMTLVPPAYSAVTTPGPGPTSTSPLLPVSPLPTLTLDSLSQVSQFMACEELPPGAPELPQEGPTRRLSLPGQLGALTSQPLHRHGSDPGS

Row | Structure (SMILES) | hERG current change (%, negative = inhibition) at 1uM
1 | S=c1[nH]nc([C@@H]2C[C@H]2c2ccccc2)n1-c1ccccc1Cl | 14%
2 | COc1cccc(C2=CC(c3ccc(C)cc3)n3ncnc3N2)c1 (stereo not drawn) | 2.57%
3 | Oc1c(N=NC(=S)Nc2ccccc2F)c2ccccc2n1Cc1ccc(Cl)cc1 | 11.2%
4 | CCC(=O)NC(=S)Nc1ccc(N2CCN(C(=O)c3ccc(Cl)cc3)CC2)cc1 | 4.44%
5 | COc1ccc2[nH]c(C)c(C(=O)CN(C)C)c2c1 | 6.98%
6 | CC1CN(C(=O)/C=C/c2cccc([N+](=O)[O-])c2)CC(C)O1 (stereo not drawn) | -4.44%
7 | O=C(NC1(C(F)(F)F)N=C2SCCN2C1=O)C1CCCCC1 (stereo not drawn) | 11.1%
8 | O=C(NCCO)c1ccc(CSc2nc3ccccc3[nH]2)cc1 | 10.6%
9 | O=C1CN(C(=O)c2c(F)cccc2F)C(c2ccc(F)cc2)c2cc(Br)ccc2N1 (stereo not drawn) | -2.22%
10 | Cc1cccc(C)c1NC(=O)c1cccc(N2C(=O)C3CCC(C)CC3C2=O)c1 (stereo not drawn) | 15.2%
11 | COc1cccc(=O)c2c(C)n(C)c(C)c12 | -13.8%
12 | O=C1NC(=O)N(c2ccccc2F)C(=O)/C1=C/c1ccc(Oc2ccc([N+](=O)[O-])cn2)cc1 | 8.42%
13 | Cc1cccc(S(=O)(=O)Nc2cccc3c2C(=O)c2ccccc2-3)c1 | 3.03%
14 | CC(NC(=S)NCc1ccc(F)cc1)C12CC3CC(CC(C3)C1)C2 (stereo not drawn) | 11.4%
15 | CC(C)(C)c1nc2ccc(NS(=O)(=O)c3ccc(F)c(F)c3F)cc2[nH]1 | 15%
16 | COc1ccc(N2CC(C(=O)Nc3cccc(OC(C)C)c3)CC2=O)cc1 (stereo not drawn) | 6.21%
17 | Cc1ccnc(SCc2ccc(C(=O)O)cc2)n1 | 10.1%
18 | O=c1[nH]c(CN2CC=C(c3ccccc3)CC2)nc2cc(C(F)(F)F)ccc12 | 6.41%
19 | COc1ccc(N2CC(=O)N(c3ccc(OC)c(OC)c3)CC2=O)cc1OC | 5.5%
20 | CCN1CCN(c2nc3c(c(=O)[nH]2)CCCC3)CC1 | 9.93%
21 | CCCCn1c(C(C)NC(=O)CC)nc2ccccc21 (stereo not drawn) | -14.7%
22 | CCN1CCc2c(C#N)c(N3CCCCC3)nc(N3CCOCC3)c2C1 | 12.1%
23 | Cc1ccc(CN2CC(=O)N3[C@H]4c5ccccc5OC[C@@H]4[C@H](c4ccccc4)[C@]3(C)C2=O)cc1 | 12.9%
24 | CCN(CC)C(=O)Cc1cc(C(=O)O)c2ccccc2n1 | 13.3%
